Out of some 310,000 compounds screened, about 14,000 (4.5%) showed an effect of 50% or more. The effect is printed as a negative number. The list shows a part of the results.
Target: human ether-à-go-go-related gene (hERG) potassium channel (human, UniProt Q12809)
Experiment: primary screen, population patch clamp on CHO cells stably expressing hERG
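Also: peak tail current of the secondary pulse compared with the same well before compound.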

human ether-à-go-go-related gene (hERG) potassium channel, sequence (Q12809 whole entry, looked up): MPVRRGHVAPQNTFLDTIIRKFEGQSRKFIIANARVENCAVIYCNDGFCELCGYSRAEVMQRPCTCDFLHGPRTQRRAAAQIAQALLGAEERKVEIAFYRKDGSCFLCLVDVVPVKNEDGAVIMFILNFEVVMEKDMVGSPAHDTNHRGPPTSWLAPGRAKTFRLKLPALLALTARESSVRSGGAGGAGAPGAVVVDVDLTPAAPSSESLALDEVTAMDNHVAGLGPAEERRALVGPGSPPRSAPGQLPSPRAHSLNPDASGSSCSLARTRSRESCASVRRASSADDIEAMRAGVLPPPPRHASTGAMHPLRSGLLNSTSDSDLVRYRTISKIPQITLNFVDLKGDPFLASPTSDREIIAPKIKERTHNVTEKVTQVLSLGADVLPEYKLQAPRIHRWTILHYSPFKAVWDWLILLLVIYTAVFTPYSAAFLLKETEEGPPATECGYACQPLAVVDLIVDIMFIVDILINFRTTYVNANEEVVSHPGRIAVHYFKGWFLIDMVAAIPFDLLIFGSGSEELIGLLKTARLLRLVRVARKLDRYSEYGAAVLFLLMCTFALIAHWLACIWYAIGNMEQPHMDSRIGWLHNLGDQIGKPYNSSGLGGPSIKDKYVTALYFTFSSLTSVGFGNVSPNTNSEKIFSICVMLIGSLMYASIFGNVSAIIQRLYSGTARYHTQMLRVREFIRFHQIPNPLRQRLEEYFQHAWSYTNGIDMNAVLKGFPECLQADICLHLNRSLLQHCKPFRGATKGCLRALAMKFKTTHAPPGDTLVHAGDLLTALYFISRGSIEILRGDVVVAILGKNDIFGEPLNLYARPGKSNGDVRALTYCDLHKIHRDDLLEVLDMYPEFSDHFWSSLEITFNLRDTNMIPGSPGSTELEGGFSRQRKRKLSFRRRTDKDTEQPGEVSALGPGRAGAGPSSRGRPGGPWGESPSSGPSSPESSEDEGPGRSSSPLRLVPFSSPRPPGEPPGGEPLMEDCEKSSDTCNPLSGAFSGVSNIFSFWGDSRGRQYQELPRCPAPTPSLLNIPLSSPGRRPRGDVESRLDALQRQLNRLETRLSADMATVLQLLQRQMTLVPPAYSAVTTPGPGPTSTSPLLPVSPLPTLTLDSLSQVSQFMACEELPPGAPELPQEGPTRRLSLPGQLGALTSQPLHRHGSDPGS

| Compound | hERG current change (%, negative = inhibition) at 10uM |
| --- | --- |
| Cc1ccc(C)c(N2C(=O)CN=C2Nc2ccccc2Cl)c1.Cl | 3.8% |
| O=C1C=C(NCc2ccco2)CCC1 | 16.7% |
| CCOc1ccc(-c2cc(CCCC(=O)NCc3cccnc3)no2)cc1 | -35% |
| CN(C)S(=O)(=O)c1cc(NC(=O)CN2CCN(c3ccccc3)CC2)ccc1Cl | -17.1% |
| O=C(NCC1CCCO1)c1cccc(NC(=O)c2ccc(Br)cc2)c1 (centres unmarked) | -0.865% |
| COc1cc(/C=N/NC(=O)CC2(C)OCCO2)cc(Br)c1O | 6.27% |
| O=C(CCNC(=O)c1ccc(Br)cc1)Nc1ccc(S(=O)(=O)Nc2ncccn2)cc1 | 5.02% |
| Cc1ccc(C(=O)O)cc1-c1ccc(C=C2C(=O)c3ccccc3C2=O)o1 | 1.32% |
| COc1ccccc1N1C(=O)CC(N2CCN(c3ccc(F)cc3)CC2)C1=O (centres unmarked) | -1.99% |
| CCn1c(SCC(=O)NC(C)(C)C)nnc1-c1ccoc1C | -18.5% |
| COc1ccc(-c2cc(-c3nnc(COC(=O)C4CC4C)o3)c3ccccc3n2)cc1OC (centres unmarked) | -10.3% |
| COc1ccc(C(N)c2nccc3cc(OC)c(OC)cc23)cc1OC (centres unmarked) | 14% |
| O=C(CCN1C(=O)[C@@H]2Cc3ccccc3CN2C1=O)NCc1ccccc1Cl | -4.03% |
| Cc1ccc(-c2[nH]c3ccccc3c2C(C[N+](=O)[O-])c2ccco2)cc1 (centres unmarked) | 8.51% |
| Cc1cccc(NC(=O)c2cccc(S(=O)(=O)Nc3ccccc3C(=O)O)c2)c1 | 12.2% |
| c1cncc(-c2csc(-c3cccnc3)n2)c1 | 13.7% |
| CCCCCCCC1CC(=O)C=C(C)C1C(=O)OCC (centres unmarked) | -10.2% |
| CN(C)CCCN(Cc1cc2cc3c(cc2[nH]c1=O)OCCO3)C(=O)NC1CCCCC1 | 8.87% |
| CN(C)CCCNC(=O)CCC1CCCCC1 | 7.25% |

| Compound | hERG current change (%, negative = inhibition) at 10uM |
| --- | --- |
| O=C(CNC(=O)N1CC(=O)Nc2ccccc21)Nc1ccc(F)c(Cl)c1 | 21.6% |
| O=C(NCCN1CCOCC1)c1nn2c(c1Cl)NC(c1ccccc1)CC2C(F)(F)F (centres unmarked) | -9.8% |
| CCOc1ccc(NS(=O)(=O)c2cc(NC(=O)c3ccc(C)cc3)ccc2Cl)cc1 | 10.9% |
| CCC(/C=N/NC(=O)c1ccccc1F)CC | 30.8% |
| CCC(Oc1cc(Cl)ccc1Cl)C(=O)NN1C(=O)C2C3CCC(C3=C(C)C)C2C1=O (centres unmarked) | 1% |
| O=C(c1ccccc1-c1ncc[nH]1)N1CCCC(Nc2ccc(F)cc2)C1 (centres unmarked) | 10.5% |
| COc1cccc(CCNC(=O)CCc2nnc(Cc3cc(OC)ccc3OC)o2)c1 | 11.1% |
| CC(OC(=O)CNC(=O)c1ccc2ccccc2c1)C(=O)N(C)C1CCCCC1 (centres unmarked) | -27% |
| CCOC(=O)N/N=C\c1ccc(OC/C=C/c2ccccc2)cc1 | 24.4% |
| O=C1C(=O)N(C2CCCC2)C(=O)N1Cc1c(F)cccc1Cl | 15.5% |
| C[C@H](NC(=O)c1[nH]cnc1C(=O)Nc1nccs1)c1ccccc1 | 3.5% |
| CCS(=O)(=O)N1Cc2ccccc2CC1C(=O)OCC(=O)Nc1ccc(C)cc1 (centres unmarked) | -20.4% |
| N/C(COc1ncn(-c2ccccc2)n1)=N\S(=O)(=O)c1ccc(Cl)cc1Cl | -49.3% |
| CCOC(=O)C1=C(C)NC(=O)NC1c1ccc(N2CCC(c3ccccc3)=N2)cc1 (centres unmarked) | -5.77% |
| Cn1cnnc1SCC(=O)NC1CCCc2ccccc21 (centres unmarked) | 16.7% |
| Cc1ccc(OS(=O)(=O)c2cn(C)c(=O)n(C)c2=O)cc1C | -0.493% |
| CCOC(=O)CNS(=O)(=O)c1cc(-c2nn(C)c(=O)c3ccccc23)ccc1C | -52.8% |
| CCO[C@@H]1OC(C(=O)NC2CC2)=C[C@H](C)[C@H]1CCCO | 14.4% |
| COc1ccc(C2c3[nH]c4ccccc4c3CCN2CCCn2cccn2)c(F)c1 (centres unmarked) | -3.85% |

| Compound | hERG current change (%, negative = inhibition) at 10uM |
| --- | --- |
| Cc1cccn2c(=O)c3cc(C(=O)NC4CCCC4)c(=N)n(CCCN4CCOCC4)c3nc12 | -74.7% |
| O=C(NN=C1CCCC1)c1[nH]c2ccc(Br)cc2c1-c1ccccc1 | 22.6% |
| O=C(Nc1ccc2nn(-c3ccccc3)nc2c1)c1ccc2c(c1)OCO2 | -6.91% |
| Cc1cc(C(F)(F)F)nn1CC(=O)N(C)c1ccccc1 | 15.4% |
| CCN(CC)CCC(=O)Nc1cccc2c1C(=O)c1ccccc1C2=O.Cl | -44.1% |
| O=C1/C(=C/c2ccccn2)COc2ccccc21 | 18.7% |
| COc1ccc(N2C(=O)C3CCCN3C2c2ccccc2F)cc1 (centres unmarked) | -2.76% |
| O=C(CCS(=O)(=O)c1ccccc1)Nc1nc2c(s1)COc1ccccc1-2 | -28.1% |
| Cc1nc(-n2nnc(CO)c2CO)nc2c1CCC2 | 9.54% |
| CCOC(=O)c1ccccc1NC(=O)Cn1cnc2c1c(=O)n(C)c(=O)n2C | -0.395% |
| O=[N+]([O-])c1cccc(Nc2nc(Cl)nc(Cl)n2)c1 | 14.4% |
| O=C1c2cccc3cccc(c23)C(=O)N1/N=C/c1c(O)n(-c2ccccc2)c(=O)[nH]c1=O | -3.66% |
| COc1cc(Nc2ccc(S(N)(=O)=O)cc2)c([N+](=O)[O-])nc1[N+](=O)[O-] | 17.8% |
| CC(C)C(=O)N(Cc1ccc2c(c1)OCO2)Cc1ccccn1.Cl | -7.53% |
| Cc1ccc(-c2nc3ccccc3c(=O)o2)cc1 | 21.1% |
| CCCn1c(SC(C)C(=O)O)nc2ccccc21 (centres unmarked) | -18.9% |
| Fc1cccc(CN2CCSCC2)c1 | 19% |
| CCOC(=O)C1CCCN(S(=O)(=O)c2ccc(S(N)(=O)=O)cc2)C1 (centres unmarked) | 10.9% |

Reference: article PMC4336329 (PLoS ONE, 2015)
